We go through 114 compounds from PubChem BioAssay AID488969 (Vanderbilt High Throughput Screening Facility, 2010).

Whole data set: some 110,000 compounds, median “z-score” near -0.1, cut for the highest 2% near 2. The list shows a part of the results. The source made the active and inactive calls.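 The calls were made as follows: active = z-score in the third read window above 3 or below -3; inactive = the rest.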

This experiment addresses Metabotropic glutamate receptor 8 (Rattus norvegicus) (UniProt P70579). Briefly: rat mGluR8 modulators via GIRK flux, primary screen, cell-based, thallium flux, HTS (AID 488969). As to conditions: HEK293 rat mGluR8, GIRK (G protein-gated inwardly rectifying potassium channel) thallium flux, FluoZin2; at 10 µM; stronger effect = higher value; submaximal glutamate (EC20) added with thallium.
Sequence of UniProt P70579 (P70579 whole entry, looked up): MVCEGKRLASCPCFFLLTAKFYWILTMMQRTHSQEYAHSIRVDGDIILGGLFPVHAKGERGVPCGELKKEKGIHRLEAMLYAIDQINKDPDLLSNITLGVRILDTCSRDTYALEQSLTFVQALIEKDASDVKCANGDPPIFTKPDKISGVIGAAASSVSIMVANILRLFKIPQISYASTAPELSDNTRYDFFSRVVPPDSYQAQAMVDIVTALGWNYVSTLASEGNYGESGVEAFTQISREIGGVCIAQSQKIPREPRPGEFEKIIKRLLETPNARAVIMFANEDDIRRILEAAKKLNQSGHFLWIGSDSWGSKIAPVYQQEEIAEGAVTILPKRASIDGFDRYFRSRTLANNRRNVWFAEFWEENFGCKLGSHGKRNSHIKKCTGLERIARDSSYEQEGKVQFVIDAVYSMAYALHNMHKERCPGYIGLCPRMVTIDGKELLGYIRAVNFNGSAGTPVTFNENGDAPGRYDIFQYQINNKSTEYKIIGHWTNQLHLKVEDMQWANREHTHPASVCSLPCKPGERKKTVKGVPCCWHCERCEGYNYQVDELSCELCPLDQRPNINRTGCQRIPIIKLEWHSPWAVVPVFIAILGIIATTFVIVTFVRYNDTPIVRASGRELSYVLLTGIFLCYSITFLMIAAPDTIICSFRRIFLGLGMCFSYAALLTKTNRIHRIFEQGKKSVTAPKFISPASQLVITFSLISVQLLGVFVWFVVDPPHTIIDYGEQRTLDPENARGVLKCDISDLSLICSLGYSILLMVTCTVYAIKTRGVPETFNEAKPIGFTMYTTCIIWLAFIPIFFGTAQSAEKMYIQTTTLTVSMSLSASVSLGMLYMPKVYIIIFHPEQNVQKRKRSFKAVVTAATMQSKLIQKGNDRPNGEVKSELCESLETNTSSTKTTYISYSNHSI
In the case of `CCCOc1ccc(C(=O)CCC(=O)OCC(=O)Nc2ccc(Oc3ccccc3)cc2)cc1`, the z-score was -0.0976.

Take `CC(C)(C)OC(=O)N1CCCC1C(=O)NCCc1ccccc1` (centres undefined): the z-score was determined as 0.213.

With `Cc1cccc(C(=O)O/N=C2/CC3CCC2(C)C3(C)C)c1` (centres undefined), the z-score was found to be 0.616.

`CCOc1ccc(NC(=O)N2CCC(C(=O)c3ccc(F)cc3)CC2)cc1` returned a z-score of -0.802.

`CCCCCCCCCCOC(=O)c1csc2nnsc12` came in with a z-score of -0.158.

`COC(=O)c1cccc(NC(=S)Nc2cccc(Cl)c2C)c1` yielded a z-score of 0.445.

As to `Cc1cc2oc(=O)cc(CSc3nc(N)cc(N)n3)c2cc1C(C)C`, the z-score was -0.862.

`CCCCCn1c(=O)c(Cc2ccccc2)c(O)c2ccccc21` yielded a z-score of -0.687.

`Cc1ccc(S(=O)(=O)NC(=O)Nc2nnc(C)s2)cc1` gave a z-score of -0.329.

Compound `O=C(COC(=O)c1ccc(Br)cc1)NCCc1ccccc1` gave a z-score of 0.111.

In the case of `O=C(COC(=O)c1ccccc1OCc1ccc(Cl)cc1)NC1CC1`, the z-score is -0.153.

As to `O=C(O)c1ccc2c(c1)ncn2C1CCCCC1`, the z-score came to 0.0749.

`Cc1ccc(NC(=O)c2nccnc2C(=O)O)cc1C` returned a z-score of -0.208.

Take `COc1ccc(/C=C(/C#N)C(=O)Nc2ccccc2C)cc1C(=O)O`: the z-score is 0.919.

Consider `CNC(=S)NNC(=O)c1sccc1C`, for which the z-score was -0.0354.

In the case of `CCCCNC(=O)C(=O)N/N=C/c1cccc(Br)c1`, the z-score turned out to be 0.475.

With `CC(=O)c1ccc(OCC(=O)c2cc(C)n(-c3ccc4c(c3)OCO4)c2C)cc1`, the z-score is -0.81.

On to `O=C(O)c1ccccc1OCCOc1ccccc1C(=O)O`, for which the z-score was -0.0901.

The compound `Cc1ccc(Nc2ccc(S(=O)(=O)N3CCOCC3)cc2[N+](=O)[O-])cc1C` returned a z-score of -0.196.

As for `CC(=O)OCCNC(=O)c1cc2ccccc2oc1=O`, the z-score is -0.258.

In turn, `Cc1cccc(N2C(=S)N=C(Nc3c(C)cccc3C)C23CCOC(C)(C)C3)c1` (centres undefined) registered a z-score of -0.179.

On to `Cc1cc(C)n(-c2nc(C)nc3c2cnn3-c2ccccc2)n1`, for which the z-score was 0.697.

As to `COc1ccc(CCNC(=O)COC(=O)c2ccc(Br)o2)cc1`, the z-score was -0.0353.

`O=C(CCSc1ccc(Cl)cc1)N1CCOCC1` returned a z-score of -0.207.

For the compound `Cc1ccccc1NC(=O)Cn1cnc2c1c(=O)n(C)c(=O)n2C`, the z-score turned out to be 0.132.

Turning to `CC(C)(C)c1cc(NC(=O)CSc2nncs2)n(-c2ccccc2)n1`, the z-score was -0.0332.

With `O=c1oc(-c2ccccc2)nc2sc3c(c12)CCCC3`, the z-score was 0.445.

`Cc1ccc(C)c2c(SC(C)C(=O)NCc3ccco3)nc(-c3ccccc3)nc12` (centres undefined) yielded a z-score of 0.598.

Compound `c1ccc(COc2ccccc2CNCc2cccnc2)cc1` displayed a z-score of -0.188.

In the case of `COc1ccc(C(=O)NN)cc1COc1ccc(Br)cc1`, the z-score was 0.0387.

As to `CCOC(=O)CSc1nc2c(sc(=S)n2Cc2ccco2)c(=O)n1-c1ccccc1`, the z-score is -0.492.

Consider `O=C(Cn1nnc2ccccc21)N1CCCCC1`, for which the z-score was -0.0475.

On to `CCOC(=O)c1[nH]cnc1C(=O)NC1CCCCC1`, for which the z-score was -0.225.

In turn, `CCOC(=O)CSc1nnc(-c2cccc(Br)c2)o1` registered a z-score of -0.186.

In turn, `CCOC(=O)COc1ccccc1-c1ccno1` had a z-score of -0.0953.

Take `COc1cc(C=O)ccc1OCCCCOc1ccccc1[N+](=O)[O-]`: the z-score is -0.729.

Turning to `S=C(c1ccc(-c2cc(Cl)ccc2Cl)o1)N1CCCCC1`, the z-score was -0.0149.

Regarding `Cc1ccc(SCc2cc(=O)[nH]c(Nc3nc(C)c4cccc(C)c4n3)n2)cc1`, the z-score is -0.479.

Consider `CCn1c(C)cc(/C=C2/NC(=O)N(CC(=O)Nc3cccc(C)c3)C2=O)c1C`, for which the z-score was -0.416.

`CC1(C)N=C(N)NC(Nc2cccc(Br)c2)=N1`: the z-score was found to be 0.821.

With `NC(=O)C1(S(=O)(=O)c2ccccc2)CCCCC1`, the z-score was 0.127.

The compound `O=C(Nc1cccc(Br)c1)c1ccc(CSc2ccccc2)cc1` had a z-score of -0.279.

In turn, `Cc1cc2nc(-c3cccc(NC(=O)c4ccc(Br)o4)c3)oc2cc1C` came in with a z-score of -0.467.

For the compound `COC(=O)C1=C(NC(=O)c2ccc(C)c(C)c2)CCS1`, the z-score came out at 0.579.

In turn, `COc1ccc(CCn2c(N)c(S(=O)(=O)c3cccs3)c3nc4ccccc4nc32)cc1OC` had a z-score of -0.349.

Turning to `Cc1ccccc1C(=O)Nc1nc(=S)ss1`, the z-score was determined as 2.56.

`COC(=O)C(C)NC(=O)C(C)NC(=O)OCc1ccccc1` (centres undefined) yielded a z-score of -0.0538.

The compound `O=C(Cn1c(COc2ccccc2)nc2ccccc21)Nc1cc(Cl)ccc1Cl` came in with a z-score of -0.284.

`C=C(C)Cn1c(SCC(=O)N/N=C/c2cccc(O)c2)nc2ccccc2c1=O` yielded a z-score of -0.962.

Turning to `O=c1[nH]c2cc3c(cc2cc1C(c1nnnn1Cc1ccccc1)N1CCCCCC1)OCCO3` (centres undefined), the z-score is -0.315.

In turn, `CC(C)NS(=O)(=O)c1ccc(NC(=O)CCc2ccccc2)cc1` returned a z-score of -0.304.

For `O=C(CN1CCOCC1)Nc1ccccc1Cl`, the z-score turned out to be 0.214.

In turn, `CSc1ccc(Cn2nnc(C(=O)NCc3ccccc3)c2N)cc1` came in with a z-score of -0.439.

The compound `COc1ccc(CC(=O)N2CCC(Nc3nc4ccccc4n3Cc3ccc(F)cc3)CC2)cc1` registered a z-score of -0.087.

As to `Cc1ccc(NC(=O)N2CCC(C(=O)NCc3ccccc3)CC2)cc1`, the z-score was -0.545.

`CCC1S/C(=C(\C#N)C(=O)NCc2ccco2)N(c2ccc(Br)cc2)C1=O` (centres undefined) yielded a z-score of -0.137.

The compound `Cc1cc(NS(=O)(=O)c2ccc(NC(=O)COc3ccccc3Cl)cc2)no1` showed a z-score of 0.0472.

As for `N#CC1=C(N)C(C#N)(C#N)C(c2ccncc2)C2CN(C(=O)OCc3ccccc3)CC=C12` (centres undefined), the z-score was -1.7.

In turn, `CCCOC(=O)c1ccc(NC(=O)c2cn(CC)c3nc(C)ccc3c2=O)cc1` yielded a z-score of -0.0515.

`COC(=O)c1cc(OC)c(OC)cc1NC(=S)N1CCN(c2ccccc2)CC1` returned a z-score of 0.413.

Regarding `O=c1oc2ccccc2cc1NCc1ccccc1O`, the z-score is -0.317.

For the compound `O=C(NCC1CCCO1)c1cc(-c2ccccc2)on1` (centres undefined), the z-score was determined as 0.0734.

In turn, `NS(=O)(=O)c1ccc(NC(=O)Cn2ncc3c2-c2ccccc2OC3)cc1` returned a z-score of -0.00479.

The compound `OC1CCCN(Cc2ccccc2)C1` (centres undefined) gave a z-score of -0.193.

Compound `COc1cc(NC(=O)COC(=O)CNS(=O)(=O)c2ccc(F)c(F)c2F)cc(OC)c1` registered a z-score of -0.336.

`CC(C)(C)c1nc(SCC(=O)NCc2ccco2)c2ccccc2n1` returned a z-score of -0.748.

Take `CCSc1nc2c(c(=O)[nH]1)C(C(C)C)C(C#N)=C(N)O2` (centres undefined): the z-score is -0.27.

With `Cc1cc(O)cc(O)c1C=NCc1ccco1`, the z-score is -0.521.

With `CCOC(=O)N1CCN(c2ccccc2O)CC1`, the z-score is -0.0312.

Compound `COc1ccc(N2CCN(C(=O)CC(NC(N)=O)c3cccc(Oc4ccccc4)c3)CC2)cc1` (centres undefined) yielded a z-score of -0.0409.

With `CSc1ccc(/C=N\NC(=O)COc2ccc(Cl)cc2Br)cc1`, the z-score is -0.285.

`Cc1noc(C)c1S(=O)(=O)N(CC(=O)NCc1ccc(Cl)cc1)c1ccc2c(c1)OCO2`: the z-score is -0.098.

For `N[C@@H](Cc1ccccc1)c1nnc(SCc2ccccc2Cl)o1`, the z-score was -0.0808.

For `O=C(O)CCc1ccc(-c2cccs2)n1Cc1ccco1`, the z-score was found to be 0.499.

As to `CCN1CCN(c2cc(C(C)(C)C)nc3c(-c4ccccc4)c(C)nn23)CC1`, the z-score is -0.0918.

With `COc1ccc(-c2cc(N)n(S(=O)(=O)c3ccc(F)cc3)n2)cc1OC`, the z-score is -0.473.

Compound `CCOc1ccc(NC(=O)Nc2cc(-c3ccccc3)sc2C(=O)OC)cc1` showed a z-score of -0.0844.

Compound `CCc1nnc(NC(=O)CSc2nccn2-c2cccc(C)c2C)s1` had a z-score of -0.448.

Regarding `Cc1ccc(-n2c(SCC(=O)OC(C)C)nnc2-c2cnccn2)cc1`, the z-score came out at 0.00862.

`O=C1c2ccccc2C(Nc2ccc3c(c2)OCO3)N1Cc1ccco1` (centres undefined) displayed a z-score of 0.00476.

Take `O=C(NCCc1ccncc1)C12CC3CC(CC(C3)C1)C2`: the z-score was 0.467.

`C=CCn1c(SCCC(=O)O)nc2c1c(=O)n(C)c(=O)n2C` registered a z-score of -0.231.

Compound `O=C(c1cc2c(ccc3ccccc32)o1)N1CCN(c2ncc(C(F)(F)F)cc2Cl)CC1` registered a z-score of -0.108.

Consider `C/C(Cl)=C\Cn1c(Nc2ccccc2)nc2c1c(=O)n(C)c(=O)n2C`, for which the z-score was -0.66.

Take `CC(C)CNc1nc2c(c(=O)n(C)c(=O)n2C)n1Cc1cccc(Br)c1`: the z-score was -0.146.

`CCOC(=O)c1c(NC(C)=O)sc2c1C1CCN2CC1` showed a z-score of 0.0192.

Compound `COC(=O)CC1C(=O)NCCN1C(=O)CSc1nnc(Nc2ccc(C)cc2)s1` (centres undefined) displayed a z-score of -0.0968.

For `O=C(Nc1nnc(C2CC2)s1)c1ccccn1`, the z-score came out at 0.416.

Take `O=C(CN1CCN(S(=O)(=O)c2ccc(Br)cc2)CC1)Nc1ccccc1C(=O)c1ccccc1`: the z-score is -0.75.

Compound `COc1cccc(OCCOCCOc2ccc(C)cc2[N+](=O)[O-])c1` had a z-score of -0.112.

As to `COc1cccc(/C=C2\SC(=O)N(CCC(=O)NNC(=O)c3cccc(Cl)c3)C2=O)c1`, the z-score is -0.707.

`Cc1nnnn1-c1cccc(C(=O)O)c1` had a z-score of -0.273.

Turning to `Cn1c(/N=C/c2cc(Cl)ccc2O)nc2ccccc21`, the z-score is -0.564.

Regarding `COCCCn1c(CCC(=O)O)ccc1-c1cccs1`, the z-score is -0.132.

`NC(=O)c1nn(-c2ccccc2)c(=O)cc1O` returned a z-score of -0.332.

As to `CCCCC(=O)Nc1ccc(C(=O)Nc2cccnc2)cc1`, the z-score is 0.0123.

As to `CCOc1ccc(C)cc1S(=O)(=O)NC1CCCCC1`, the z-score is -0.31.

`Cc1ccc(S(=O)(=O)N/N=c2\oc3ccccc3cc2C(=O)Nc2cccc(C)c2)cc1` gave a z-score of -0.247.

The compound `CCN(CC)c1ccc(/C=N/NC(=O)c2c(Cl)cnn2C)c(O)c1` had a z-score of -0.49.

The compound `CCN(CC)CCCN1C(=O)C(O)=C(C(=O)c2ccco2)C1c1ccc(OC(C)C)cc1` (centres undefined) registered a z-score of -0.35.

Turning to `NC(=S)Nc1cccc2cccnc12`, the z-score stood at 0.156.

Regarding `CCOC(Cn1c(CCCO)nc2ccccc21)OCC`, the z-score is -0.5.

The compound `Oc1cccc(/C=N/c2c(-c3ccco3)nc3ccccn23)c1` yielded a z-score of 0.026.

On to `FC(F)(F)c1cnc(Sc2nc3nccc(-c4ccc(Cl)cc4)n3n2)c(Cl)c1`, for which the z-score is -0.6.

Regarding `CC1CCN(C(=O)CCc2ccc(S(=O)(=O)NC(C)(C)C)cc2)CC1`, the z-score was 0.209.

Turning to `CC(C)c1nc(=S)n(-c2ccccc2)[nH]1`, the z-score was active: 4.41.

`COC(=O)/C(=C\c1ccc([N+](=O)[O-])o1)NC(=O)c1ccccc1`: the z-score was -0.168.

`Cc1ccc(NC(=O)CCC(=O)NNC(=O)c2cccs2)cc1C` registered a z-score of -0.0709.

Consider `COc1cccc(-n2nc3c(=S)[nH]nc(C)c3c2C)c1`, for which the z-score was found to be 0.0943.

On to `COc1ccc(Nc2nc(-c3sc(N)nc3C)cs2)cc1`, for which the z-score stood at 0.175.

As for `COC(=O)c1cc(Cl)c(NC(=O)c2cc(OC)c(OC)c(OC)c2)cc1OC`, the z-score is -0.179.

Regarding `CCOC(=O)c1nn(C23CC4CC(CC(C4)C2)C3)c2c1C(=O)N(c1ccc(C)cc1)C2=O`, the z-score was -0.0256.

On to `O=C(Nc1sc2c(c1CN1CCOCC1)CCC2)c1ccc(F)cc1`, for which the z-score is -0.457.

`CC(C)Oc1ccc(CNCCC2(C(C)C)CCOC(C)(C)C2)cc1` (centres undefined) came in with a z-score of 0.314.
